For assay [1], the target named is ETV4 (ETS variant 4) of colorectal cancer cells (human (endogenous in HCT116 and RKO)) (UniProt P43268). Nature of the assay: proximity ligation; Duolink in situ PLA in HCT116 and RKO cells; either ETV4 or LOXL2 antibody alone as control; confocal microscopy.
The target of the next assay is GST-ETV4 fusion protein (UniProt P43268). The assay is described as follows: pull-down; GST, GST-ETV4 or GST-ETV4-P1 bound to glutathione-Sepharose beads, incubated with whole cell lysate of HCT116-ETV4 cells (RIPA buffer); detected with anti-LOXL2 antibody; only the target purified.
In assay [2] the target is GST-ETV4-P1(1-339AA) fusion protein (UniProt P43268). The description is as above.
The target of a further assay is Flag-ETV4-P2(278-484) (UniProt P43268). Nature of the assay: co-IP; 293Ta cells co-transfected with Flag-ETV4 (or deletion mutants) and HA-LOXL2 for 48h; IP lysis buffer; anti-Flag antibody on Protein A/G magnetic beads, overnight at 4 C; normal mouse IgG as control; Western blotting.
For a further assay, the target named is Flag-ETV4-P1(1-339) (UniProt P43268). The assay is described as above.
Assay [3] has as its target Flag-ETV4 (ETS variant 4) (UniProt P43268). Described as above.
In another assay the target is Flag-ETV4-P3(340-484) (UniProt P43268). Described as above.

Protein sequences, listed by entry. Tags and fused reporters are not part of them. Lines headed by an entry give the natural chain unless they say otherwise; changes in a name come on top. Residues count along the entry.
UniProt P43268: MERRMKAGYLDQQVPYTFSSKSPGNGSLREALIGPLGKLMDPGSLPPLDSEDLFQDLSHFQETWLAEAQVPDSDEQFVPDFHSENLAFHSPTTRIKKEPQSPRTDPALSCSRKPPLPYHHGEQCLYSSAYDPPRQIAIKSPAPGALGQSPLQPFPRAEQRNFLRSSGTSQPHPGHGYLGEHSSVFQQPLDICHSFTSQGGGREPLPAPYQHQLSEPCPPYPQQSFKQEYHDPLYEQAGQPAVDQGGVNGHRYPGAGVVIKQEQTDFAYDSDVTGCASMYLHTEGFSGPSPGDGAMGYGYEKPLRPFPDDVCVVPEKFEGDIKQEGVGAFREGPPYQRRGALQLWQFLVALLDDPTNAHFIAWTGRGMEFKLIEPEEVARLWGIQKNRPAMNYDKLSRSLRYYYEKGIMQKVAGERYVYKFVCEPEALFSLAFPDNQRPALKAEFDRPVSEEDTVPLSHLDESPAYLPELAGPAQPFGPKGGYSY
Flag-ETV4-P1(1-339): residues 1-339 of P43268
Flag-ETV4-P2(278-484): residues 278-484 of P43268
Flag-ETV4-P3(340-484): residues 340-484 of P43268
UniProt Q9Y4K0, residues 26-774: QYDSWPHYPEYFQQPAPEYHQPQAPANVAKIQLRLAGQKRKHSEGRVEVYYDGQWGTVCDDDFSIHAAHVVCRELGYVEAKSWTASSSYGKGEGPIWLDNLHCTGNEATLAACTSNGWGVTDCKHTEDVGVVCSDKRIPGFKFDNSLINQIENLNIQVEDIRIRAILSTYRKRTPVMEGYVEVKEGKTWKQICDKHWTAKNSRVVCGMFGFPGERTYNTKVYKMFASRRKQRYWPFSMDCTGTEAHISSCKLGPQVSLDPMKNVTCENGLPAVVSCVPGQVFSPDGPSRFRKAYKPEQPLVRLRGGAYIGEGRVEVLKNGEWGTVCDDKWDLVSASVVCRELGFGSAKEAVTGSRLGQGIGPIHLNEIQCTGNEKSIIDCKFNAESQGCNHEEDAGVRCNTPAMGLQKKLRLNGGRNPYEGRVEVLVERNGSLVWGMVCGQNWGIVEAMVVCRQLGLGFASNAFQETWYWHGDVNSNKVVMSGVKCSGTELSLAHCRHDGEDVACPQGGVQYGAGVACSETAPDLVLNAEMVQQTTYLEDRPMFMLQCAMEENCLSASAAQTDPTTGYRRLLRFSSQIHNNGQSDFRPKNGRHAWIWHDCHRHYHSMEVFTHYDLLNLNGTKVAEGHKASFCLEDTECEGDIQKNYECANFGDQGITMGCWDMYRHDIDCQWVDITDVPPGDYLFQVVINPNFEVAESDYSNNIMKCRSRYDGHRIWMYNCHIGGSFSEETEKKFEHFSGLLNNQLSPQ

These are yes or no findings as the source states them, for the method shown. In cells and extracts the contact can be indirect. Some results given as binding are weak or reduced against the parent protein; the word gives no strength.

Take “LOXL2 (Lysyl oxidase-like 2) of colorectal cancer cells (from UniProt Q9Y4K0 26-774) (enzyme)”: the binding result (in assay [1]; in the assay with GST-ETV4 fusion protein; in assay [2]) was “binds” each time.

Take “HA-LOXL2 (Lysyl oxidase-like 2) (from UniProt Q9Y4K0 26-774) (enzyme)”: the binding entry is recorded as “no binding” with Flag-ETV4-P2(278-484), “binds” with Flag-ETV4-P1(1-339), “binds” in assay [3] and “no binding” in the assay with Flag-ETV4-P3(340-484).

The values are drawn from article PMC12631116.
